The values that follow come from the supplement of paper PMC10037445.

The subject of experiment [1] is RAW-Dual. The experiment can be described thus: NF-kB SEAP reporter activity, fold change vs agonist alone; cytotoxicity flag (confluency mask): not cytotoxic; higher = enhanced NF-kB activity. In short, it runs like this:
(§1)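 Supernatant from RAW-Dual macrophages was read after 20 hours for IRF by QuantiLuc luminescence and for NF-κB by QuantiBlue absorbance at 620 nm. The cells (50,000 cells/well in DMEM, 384-well plates, 37 °C, 5% CO2) had received 50 nL of library stock by pin tool and, 1 h later, a PRR agonist. Reporter activity is expressed relative to agonist-alone wells as fold change, and wells were flagged cytotoxic if IncuCyte confluency was under 70% of agonist controls in both mask sets.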

The subject of experiment [2] is RAW-Dual. The experiment can be described thus: NF-kB SEAP reporter activity, fold change vs agonist alone; higher = enhanced NF-kB activity. The note with it: library stock concentration (final ~1000-fold dilution): 10 mM. The method in brief: as §1
For experiment [3], the system named is RAW-Dual. The experiment in a line: NF-kB SEAP reporter activity, fold change vs agonist alone; cytotoxicity flag (confluency mask): cytotoxic (confluency <70% of control); higher = enhanced NF-kB activity. The method in brief: as §1
[4] abbreviates: agonist: ODN 1826 (TLR9) 0.5 ug/mL.
Where [5] appears, read: agonist: Pam2CSK4 (TLR2/6) 0.1 ug/mL.
Setting [6] is: agonist: Pam3CSK4 (TLR2/1) 0.1 ug/mL.
The mark [7] stands for this setting: cytotoxicity flag (confluency mask): not cytotoxic, agonist: MPLA (TLR4) […].
Setting [8] is: cytotoxicity flag (confluency mask): not cytotoxic, agonist: Imiquimod (TLR7) […].
[9] abbreviates: cytotoxicity flag (confluency mask): cytotoxic (confluency <70% of control), agonist: Imiquimod (TLR7) […].
Setting [10] is: cytotoxicity flag (confluency mask): cytotoxic (confluency <70% of control), agonist: MPLA (TLR4) […].

“And” between values parts separate entries of the source, which are not always exact repeats. Identical values can stand only once. Over roughly 2,900 compounds, “NF-kB SEAP reporter activity, fold change vs agonist alone” has its median near 0.99; the highest 2% begin near 2.6. The list shows a part of the results.

For `CC(C)(C)NCC(O)COc1cccc2c1CC(O)C(O)C2` (configuration not stated) (library stock concentration (final ~1000-fold dilution): 10 mM), the “NF-kB SEAP reporter activity” value in experiment [1] (agonist: LPS (TLR4) 0.1 ug/mL) came out at 1.07; in experiment [1] (setting [4]), 0.934; in experiment [1] (setting [5]) it was 1.09; in experiment [1] (setting [6]), 1.12.

`CC(C)(C)NCC(O)COc1cccc2c1CC(O)C(O)C2` (configuration not stated): the “NF-kB SEAP reporter activity” value in experiment [2] (setting [7]) was found to be 1.13.

As for `Cc1ccc(S(=O)(=O)/C=C/C#N)cc1` (library stock concentration (final ~1000-fold dilution): 10 mM), the “NF-kB SEAP reporter activity” value is 0.353 and 0.3 in experiment [3] (agonist: LPS (TLR4) 0.1 ug/mL); 0.186 and 0.207 in experiment [3] (setting [4]); 0.0881 and 0.0849 in experiment [3] (setting [5]); 0.148 and 0.193 in experiment [3] (setting [6]).

Turning to `COc1cc(-c2cc(-c3ccc(N4CCNCC4)cc3)cnc2C)cc(OC)c1OC`, the “NF-kB SEAP reporter activity” value in experiment [2] (setting [8]) was found to be 1.28; in experiment [2] (setting [7]) it was 1.94.

On to `COc1cc(-c2cc(-c3ccc(N4CCNCC4)cc3)cnc2C)cc(OC)c1OC` (library stock concentration (final ~1000-fold dilution): 10 mM), for which the “NF-kB SEAP reporter activity” value in experiment [1] (agonist: LPS (TLR4) 0.1 ug/mL) was determined as 3.37; in experiment [1] (setting [4]) it was 0.202; in experiment [1] (setting [5]) it was 1.29; in experiment [1] (setting [6]), 1.57.

On to `Nc1ccccc1NC(=O)c1ccc(CNc2nccc(-c3cccnc3)n2)cc1`, for which the “NF-kB SEAP reporter activity” value is 2.7 in experiment [2] (setting [9]) and 2.58 in experiment [2] (setting [10]).

Take `Nc1ccccc1NC(=O)c1ccc(CNc2nccc(-c3cccnc3)n2)cc1` (library stock concentration (final ~1000-fold dilution): 10 mM): the “NF-kB SEAP reporter activity” value in experiment [3] (agonist: LPS (TLR4) 0.1 ug/mL) worked out at 5.7; in experiment [3] (setting [4]) it was 3.2.

Consider `Cn1sc(=O)n(Cc2ccccc2)c1=O` (library stock concentration (final ~1000-fold dilution): 10 mM), for which the “NF-kB SEAP reporter activity” value in experiment [3] (agonist: LPS (TLR4) 0.1 ug/mL) was found to be 0.399; in experiment [3] (setting [4]), 0.411; in experiment [3] (setting [5]), 0.138; in experiment [3] (setting [6]), 0.532.

Turning to `Cn1sc(=O)n(Cc2ccccc2)c1=O`, the “NF-kB SEAP reporter activity” value in experiment [2] (setting [9]) turned out to be 1.28; in experiment [2] (setting [10]) it was 0.662.

As for `CC(Nc1ncnc2[nH]cnc12)c1cc2ccc(F)cc2nc1-c1ccccn1` (configuration not stated) (library stock concentration (final ~1000-fold dilution): 10 mM), the “NF-kB SEAP reporter activity” value in experiment [1] (agonist: LPS (TLR4) 0.1 ug/mL) was 1.19; in experiment [1] (setting [4]) it was 1.52; in experiment [1] (setting [5]) it was 1.24; in experiment [1] (setting [6]), 0.92.

For `CC(Nc1ncnc2[nH]cnc12)c1cc2ccc(F)cc2nc1-c1ccccn1` (configuration not stated), the “NF-kB SEAP reporter activity” value came to 1.06 in experiment [2] (setting [8]) and 1.08 in experiment [2] (setting [7]).

Regarding `CC(C)(CO)n1cc(C(=O)c2cncc(NC(=O)Cc3ccc(Cl)cn3)c2)c2cnc(N)nc21` (library stock concentration (final ~1000-fold dilution): 10 mM), the “NF-kB SEAP reporter activity” value is 1.52 in experiment [1] (agonist: LPS (TLR4) 0.1 ug/mL), 1.09 in experiment [1] (setting [4]), 0.945 in experiment [1] (setting [5]) and 1.41 in experiment [1] (setting [6]).

For `CC(C)(CO)n1cc(C(=O)c2cncc(NC(=O)Cc3ccc(Cl)cn3)c2)c2cnc(N)nc21`, the entries for the “NF-kB SEAP reporter activity” value in experiment [2] (setting [8]) and in experiment [2] (setting [7]) were 1.05 and 1.09, respectively.

Consider `CC(C)Cn1c(=O)n(C)c(=O)c2nc[nH]c21`, for which the “NF-kB SEAP reporter activity” value in experiment [2] (setting [8]) worked out at 0.967; in experiment [2] (setting [7]), 1.22.

Consider `CC(C)Cn1c(=O)n(C)c(=O)c2nc[nH]c21` (library stock concentration (final ~1000-fold dilution): 10 mM), for which the “NF-kB SEAP reporter activity” value in experiment [1] (agonist: LPS (TLR4) 0.1 ug/mL) came out at 1.15; in experiment [1] (setting [4]) it was 1.11; in experiment [1] (setting [5]) it was 0.98; in experiment [1] (setting [6]), 1.16.

As to `COc1ccc2cc3[n+](cc2c1OC)CCc1cc2c(cc1-3)OCO2` (library stock concentration (final ~1000-fold dilution): 10 mM), the “NF-kB SEAP reporter activity” value in experiment [1] (agonist: LPS (TLR4) 0.1 ug/mL) was 1.72 and 1.63; in experiment [1] (setting [4]) it was 0.972 and 1.07; in experiment [1] (setting [5]) it was 0.794 and 0.844; in experiment [1] (setting [6]) it was 1.16 and 0.826.

As to `CC1COC2Cn3cc(C(=O)NCc4ccc(F)cc4F)c(=O)c(O)c3C(=O)N12` (configuration not stated) (library stock concentration (final ~1000-fold dilution): 10 mM), the “NF-kB SEAP reporter activity” value in experiment [1] (agonist: LPS (TLR4) 0.1 ug/mL) stood at 1.38; in experiment [1] (setting [4]), 1.03; in experiment [1] (setting [5]), 0.808; in experiment [1] (setting [6]), 0.866.

`CC1COC2Cn3cc(C(=O)NCc4ccc(F)cc4F)c(=O)c(O)c3C(=O)N12` (configuration not stated): the “NF-kB SEAP reporter activity” value was found to be 0.969 in experiment [2] (setting [8]) and 1.11 in experiment [2] (setting [7]).

For the compound `COc1ccc2c(c1)c(CC(=O)OCC(=O)O)c(C)n2C(=O)c1ccc(Cl)cc1` (library stock concentration (final ~1000-fold dilution): 10 mM), the “NF-kB SEAP reporter activity” value amounted to 0.942 in experiment [1] (agonist: LPS (TLR4) 0.1 ug/mL), 1.29 in experiment [1] (setting [4]), 1.14 in experiment [1] (setting [5]) and 1.04 in experiment [1] (setting [6]).

Regarding `COc1ccc2c(c1)c(CC(=O)OCC(=O)O)c(C)n2C(=O)c1ccc(Cl)cc1`, the results for the “NF-kB SEAP reporter activity” value in experiment [2] (setting [8]) and in experiment [2] (setting [7]) were 1.13 and 0.997, respectively.

Take `CC1C(=O)OC2CC34C5CC(C(C)(C)C)C36C(OC(=O)C6O)OC4(C(=O)O5)C21O` (configuration not stated) (library stock concentration (final ~1000-fold dilution): 10 mM): the “NF-kB SEAP reporter activity” value is 0.923 in experiment [1] (agonist: LPS (TLR4) 0.1 ug/mL), 1.16 in experiment [1] (setting [4]), 1.11 in experiment [1] (setting [5]) and 1.22 in experiment [1] (setting [6]).

In the case of `CC1C(=O)OC2CC34C5CC(C(C)(C)C)C36C(OC(=O)C6O)OC4(C(=O)O5)C21O` (configuration not stated), the results for the “NF-kB SEAP reporter activity” value in experiment [2] (setting [8]) and in experiment [2] (setting [7]) were 0.973 and 1.09, respectively.

For `CCCNC(C)C(=O)Nc1ccccc1C.Cl` (configuration not stated), the “NF-kB SEAP reporter activity” value in experiment [2] (setting [7]) was 1.03.

`CCCNC(C)C(=O)Nc1ccccc1C.Cl` (configuration not stated) (library stock concentration (final ~1000-fold dilution): 10 mM): the “NF-kB SEAP reporter activity” value in experiment [1] (agonist: LPS (TLR4) 0.1 ug/mL) was found to be 0.972; in experiment [1] (setting [4]), 0.957; in experiment [1] (setting [5]) it was 1; in experiment [1] (setting [6]) it was 0.889.

Take `NC(=O)C(CCC(F)(F)F)N(Cc1ccc(-c2ncon2)cc1F)S(=O)(=O)c1ccc(Cl)cc1` (configuration not stated): the results for the “NF-kB SEAP reporter activity” value in experiment [2] (setting [8]) and in experiment [2] (setting [7]) were 0.84 and 0.946, respectively.

For the compound `NC(=O)C(CCC(F)(F)F)N(Cc1ccc(-c2ncon2)cc1F)S(=O)(=O)c1ccc(Cl)cc1` (configuration not stated) (library stock concentration (final ~1000-fold dilution): 10 mM), the “NF-kB SEAP reporter activity” value in experiment [1] (agonist: LPS (TLR4) 0.1 ug/mL) was 0.935; in experiment [1] (setting [4]) it was 0.808; in experiment [1] (setting [5]), 0.675; in experiment [1] (setting [6]), 0.682.

Regarding `C=C1CCC(O)C/C1=C/C=C1\CCCC2(C)C1CCC2C(C)/C=C/C(C)C(C)C` (configuration not stated) (library stock concentration (final ~1000-fold dilution): 10 mM), the “NF-kB SEAP reporter activity” value in experiment [1] (agonist: LPS (TLR4) 0.1 ug/mL) came to 0.764; in experiment [1] (setting [4]), 0.771; in experiment [1] (setting [5]), 0.767; in experiment [1] (setting [6]) it was 0.764.

For `C=C1CCC(O)C/C1=C/C=C1\CCCC2(C)C1CCC2C(C)/C=C/C(C)C(C)C` (configuration not stated), the “NF-kB SEAP reporter activity” value stood at 0.745 in experiment [2] (setting [8]) and 0.857 in experiment [2] (setting [7]).
